# Measured values as given in ChEMBL document CHEMBL4888484, “Replenishing the malaria drug discovery pipeline: Screening and hit evaluation of the MMV Hit Generation Library 1 (HGL1) against asexual blood stage Plasmodium falciparum ,using a nano luciferase reporter read-out” (2022).
# Out of some 150,000 compounds screened, about 540 (0.36%) showed an effect of 50% or more. The list shows a part of the results.
# Test system: Plasmodium falciparum
# Experiment: Primary screen in NF54 nanoGlo assay, in single point, at 2uM, 72h; a lower Z score goes with more inhibition
# Format: functional, Erythrocyte
# Conditions: timepoint 72 hour
Structure (SMILES),% Inhibition,Z score
COc1ccc(-c2c(C(=O)Nc3ccc(F)cc3F)nn3c(C)cc(=O)[nH]c23)cc1,13%,-1.54
CC(C)(C)OC(=O)N1CC[C@H]1C(N)=NOCc1ncnn1CCF,-11%,1.54
CS(=O)(=O)c1ccccc1N1CC(O)(c2ccc(F)cc2)C1,-6%,0.86
CC1=C(C(=O)NCc2ccccc2)[C@H](c2ccc(C)cc2)n2nnnc2N1,-3%,0.4
CCN1CCN(C(=O)CO[C@H](c2ccccc2)C(F)(F)F)CC1=O,-12%,2.44
C[C@@](CO)(NC(=O)Cc1cccc(F)c1F)C1CC1,-6%,0.72
O=C(NCCS(=O)(=O)c1ccccc1F)NCc1ccco1,29%,-3.91
COc1ccc([C@H]2C[C@@H]2CC(=O)Nc2ncnn2-c2ccccc2)cc1,-6%,0.97
O=C(CNC(=O)OCc1ccccc1)NCc1cccnc1-c1ccsc1,-9%,1.68
O=C(NCc1ccco1)c1ccc(Br)o1,-17%,2.31
CCC1CCC(N[C@H](c2c(C)nn(C)c2C)C(F)(F)F)CC1 (some centres not stated),-11%,0.89
Cc1cc(N2CCC=C(c3ccncc3)C2)ccn1,-3%,0.51
CC=CC[C@@H](CO)NC(=O)CNC(=O)c1cccc(OC)c1,-10%,1.72
Cc1ccc2c(Nc3cc(F)ccc3F)c(C(=O)N3CCCC3)cnc2n1,1%,-0.07
Cc1ccnc(NCc2ccc(CN3CC[S+]([O-])CC3)cc2)n1,0%,-0.05
CCOc1cc(-c2nnc(N)s2)ccc1OCc1nnc(N)s1,-23%,2.28
Cc1nnc(NCCc2nnc3ccccn23)c(C#N)c1C,-17%,2.45
CC(C)Cc1noc([C@H](C)NC(=O)c2cnn(Cc3ccccc3)c2)n1,-1%,0.11
CC(CCS(C)(=O)=O)NC(=O)NCC(C)c1ccc(F)cc1F (configuration not stated),29%,-3.86

Structure (SMILES),% Inhibition,Z score
CC(=O)c1cccc(C(=O)N2C[C@H]3CC[C@@H](C2)N(Cc2ccccn2)C3)c1,2%,-0.32
c1cc(-c2nccn2Cc2nnc3n2CCC3)c2nonc2c1,-10%,1.26
O=C(OC1CCOCC1)N1CC[C@H](Oc2ncccn2)C1,-7%,1.39
Cc1ccc(-c2nnc([C@H]3CCN(C4CCCCC4)C3)o2)cc1,-10%,1.26
Cc1ccc(CCCN(C)C[C@H](O)CO)cc1,-1%,0.12
CC(=O)Nc1nc2ccc(NC(=O)Nc3ccc(F)cc3)cc2s1,-4%,0.61
C[C@@H](CCc1ccccc1F)C(=O)Nc1nncn1C,-15%,1.3
CCn1cccc(CNCc2cccc(C3CC3)c2)c1=O,-8%,1.52
COc1ccc(S(=O)(=O)[C@@H](CNC(=O)c2ccco2)c2cccnc2)cc1,-8%,1.53
CCc1cc(C(=O)N[C@@H](C)c2ncc(C)o2)[nH]n1,0%,-0.05
O=c1[nH]c2nc(NCCN3CCCC3)ncc2c(=O)n1Cc1ccccc1F,-4%,0.81
COC(=O)c1nc(-c2cnccn2)sc1-c1ccccc1,9%,-1.48
Oc1ccc(-c2cc(-c3ccccc3)nc(N3CCOCC3)n2)cc1,8%,-1.08
COc1ccccc1CC(=O)N[C@H]1COCC[C@@H]1O,-4%,0.76
c1coc(CNc2ccccc2-n2c(-c3ccco3)nc3ccccc32)c1,8%,-1.23
Cc1cc(C)n(-c2nc3nonc3nc2Nc2ccc(C)c(C)c2)n1,0%,0.09
Cc1nn(C)c(C)c1C(=O)NC[C@@](O)(c1ccccc1)C1CCOCC1,-11%,1.82
COc1ccccc1CNC(=O)c1sc(Nc2ccc(F)cn2)nc1C,-12%,1.93
CCOC(=O)C(=O)Nc1cccc(Cl)c1,-3%,0.35

Structure (SMILES),% Inhibition,Z score
COC(=O)CN1C2CCC1CC(N(C)C(=O)c1ccccc1)C2 (configuration not stated),31%,-3.92
CC1CCC2(CC1)OC[C@H](CNS(=O)(=O)NCC(F)(F)F)O2 (some centres not stated),-6%,0.81
CC(C)(NC(=O)Nc1ccccc1N1CCCC1=O)C(=O)N1CCCC1,-2%,0.24
CNC(=O)[C@H]1CCN(c2ncc(F)c(OC)n2)C1,-10%,1.93
CCCCc1c(C)nc(N)nc1NCCC(=O)N1CCCC1,-6%,0.74
COc1ccc(OCc2cc(C(=O)N3CCN4CCC[C@H]4C3)n[nH]2)c(Cl)c1,-30%,2.67
CC(C)Cn1cc(C(=O)Nc2cc(C(F)(F)F)n[nH]2)cn1,-4%,0.45
O=C(NCCC(c1ccccc1)c1ccccc1)N1CCCC1,-3%,0.28
CCN1CCN(Cc2cccn2-c2nnc(N3CCC(C)CC3)s2)CC1,-2%,0.18
CN(CC(=O)N1CCOCC1)[C@H]1CCc2ccccc2C1,-9%,0.75
C[C@@H](Cc1cn(CCCn2ccnc2)nn1)c1ccccc1,-2%,0.44
OC1CCN(CC2CCC3(CCCC3)O2)C12CCCC2 (configuration not stated),1%,-0.11
CS(=O)(=O)N1CCN(C(=O)c2ccc3nsnc3c2)CC1,10%,-1.1
Cc1n[nH]c(CNC(=O)N[C@H](c2ccc(F)c(Cl)c2)C2CC2)n1,-27%,2.85
CN1CCN(S(=O)(=O)c2ccc3c(c2)CCN3)CC1,-6%,0.75
Cc1nn(C)c2sc(C(=O)N3CCOCC3)cc12,-1%,0.22
CNC(=O)Cc1noc(-c2ccsc2)n1,21%,-2.1
CCOC(=O)N1CCC(N2CCOc3c(cc(-c4ccc(C(F)(F)F)cn4)cc3OC)C2)CC1,-3%,0.61
